Paper PMC12377709
No constants are given. Whether binding was seen depends on the method and setting. Binding seen in cells or lysates may run through a third protein. Some binding calls cover weakened binding; strength is not graded here. For some assays here: Sequences can lack the tags named with a protein.

Protein sequences, listed by entry. Tags and fused reporters are not part of them. Lines headed by an entry give the natural chain unless they say otherwise; changes in a name come on top. Chains listed by the source or under a name are the forms on record and can include a tag or linker. Residues count along the entry.
UniProt O15392: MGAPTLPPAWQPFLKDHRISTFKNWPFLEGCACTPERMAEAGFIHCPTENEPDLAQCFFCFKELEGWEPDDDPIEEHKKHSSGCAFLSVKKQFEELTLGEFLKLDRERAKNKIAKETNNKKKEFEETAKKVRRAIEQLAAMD
GST-tagged N-terminus and BIR domain of survivin (SVN_(1-90)): residues 1-90 of O15392
GST-tagged C-terminus of survivin (SVN_(90-142)): residues 90-142 of O15392

Columns and labels:
[1] = target: survivin (endogenous, HeLa) (human (endogenous in HeLa)) (UniProt O15392); test: co-IP; endogenous survivin precipitated from HeLa cell extracts with anti-survivin antibodies on protein A/G Sepharose or dynabeads; blot with anti-PSD
[2] = target: FLAG–survivin (human) (UniProt O15392); test: co-IP; HEK293T transiently co-transfected with FLAG or FLAG–survivin and untagged PSD; anti-FLAG M2 affinity gel, 2 h at 4°C; lysis buffer 50 mM Tris-HCl pH 7.4, 150 mM NaCl, 1 mM EDTA, 1% Triton X-100; blot with anti-PSD
[3] = target: GST-tagged C-terminus of survivin (SVN_(90-142)) (human) (UniProt O15392); test: pull-down; GST-tagged survivin proteins on glutathione Sepharose 4B beads incubated 1 h at RT with 35S-methionine-labelled in vitro translated PSD (reticulocyte lysate); PhosphoImager; only the target purified
[4] = target: GST-tagged N-terminus and BIR domain of survivin (SVN_(1-90)) (human) (UniProt O15392); test: as above
[5] = target: GST-tagged full length survivin (human) (UniProt O15392); test: as above
[6] = target: survivin_(T34A) (human) (UniProt O15392); test: co-IP; IP of survivin T34A and T34E with PSD (Fig. S3A); cells and antibodies not given
[7] = target: survivin_(T34E) (human) (UniProt O15392); test: as above

B1: phosphatidylserine decarboxylase (endogenous, HeLa) (enzyme, UniProt Q9UG56 53-409)
chain: IHTAPARTMFLLRPLPILLVTGGGYAGYRQYEKYRERELEKLGLEIPPKLAGHWEVALYKSVPTRLLSRAWGRLNQVELPHWLRRPVYSLYIWTFGVNMKEAAVEDLHHYRNLSEFFRRKLKPQARPVCGLHSVISPSDGRILNFGQVKNCEVEQVKGVTYSLESFLGPRMCTEDLPFPPAASCDSFKNQLVTREGNELYHCVIYLAPGDYHCFHSPTDWTVSHRRHFPGSLMSVNPGMARWIKELFCHNERVVLTGDWKHGFFSLTAVGATNVGSIRIYFDRDLHTNSPRHSKGSYNDFSFVTHTNREGVPMRKGEHLGEFNLGSTIVLIFEAPKDFNFQLKTGQKIRFGEALGSL
[1]
  binding: binds

B2: untagged wild-type PSD (enzyme, UniProt Q9UG56 53-409)
chain: IHTAPARTMFLLRPLPILLVTGGGYAGYRQYEKYRERELEKLGLEIPPKLAGHWEVALYKSVPTRLLSRAWGRLNQVELPHWLRRPVYSLYIWTFGVNMKEAAVEDLHHYRNLSEFFRRKLKPQARPVCGLHSVISPSDGRILNFGQVKNCEVEQVKGVTYSLESFLGPRMCTEDLPFPPAASCDSFKNQLVTREGNELYHCVIYLAPGDYHCFHSPTDWTVSHRRHFPGSLMSVNPGMARWIKELFCHNERVVLTGDWKHGFFSLTAVGATNVGSIRIYFDRDLHTNSPRHSKGSYNDFSFVTHTNREGVPMRKGEHLGEFNLGSTIVLIFEAPKDFNFQLKTGQKIRFGEALGSL
[2]
  binding: binds

B3: ^35S-labelled in vitro translated PSD (enzyme, UniProt Q9UG56 1-409)
chain: MATSVGHRCLGLLHGVAPWRSSLHPCEITALSQSLQPLRKLPFRAFRTDARKIHTAPARTMFLLRPLPILLVTGGGYAGYRQYEKYRERELEKLGLEIPPKLAGHWEVALYKSVPTRLLSRAWGRLNQVELPHWLRRPVYSLYIWTFGVNMKEAAVEDLHHYRNLSEFFRRKLKPQARPVCGLHSVISPSDGRILNFGQVKNCEVEQVKGVTYSLESFLGPRMCTEDLPFPPAASCDSFKNQLVTREGNELYHCVIYLAPGDYHCFHSPTDWTVSHRRHFPGSLMSVNPGMARWIKELFCHNERVVLTGDWKHGFFSLTAVGATNVGSIRIYFDRDLHTNSPRHSKGSYNDFSFVTHTNREGVPMRKGEHLGEFNLGSTIVLIFEAPKDFNFQLKTGQKIRFGEALGSL
modifications: 35S-methionine-labelled
[3]
  binding: no binding
[4]
  binding: binds
[5]
  binding: binds

B4: PSD (co-immunoprecipitation with the survivin T34 mutants, Fig. S3A) (enzyme, UniProt Q9UG56 53-409)
chain: IHTAPARTMFLLRPLPILLVTGGGYAGYRQYEKYRERELEKLGLEIPPKLAGHWEVALYKSVPTRLLSRAWGRLNQVELPHWLRRPVYSLYIWTFGVNMKEAAVEDLHHYRNLSEFFRRKLKPQARPVCGLHSVISPSDGRILNFGQVKNCEVEQVKGVTYSLESFLGPRMCTEDLPFPPAASCDSFKNQLVTREGNELYHCVIYLAPGDYHCFHSPTDWTVSHRRHFPGSLMSVNPGMARWIKELFCHNERVVLTGDWKHGFFSLTAVGATNVGSIRIYFDRDLHTNSPRHSKGSYNDFSFVTHTNREGVPMRKGEHLGEFNLGSTIVLIFEAPKDFNFQLKTGQKIRFGEALGSL
[6]
  binding: binds
[7]
  binding: binds

B5: catalytically inactive PSD (S378A) (enzyme, UniProt Q9UG56 53-409)
chain: IHTAPARTMFLLRPLPILLVTGGGYAGYRQYEKYRERELEKLGLEIPPKLAGHWEVALYKSVPTRLLSRAWGRLNQVELPHWLRRPVYSLYIWTFGVNMKEAAVEDLHHYRNLSEFFRRKLKPQARPVCGLHSVISPSDGRILNFGQVKNCEVEQVKGVTYSLESFLGPRMCTEDLPFPPAASCDSFKNQLVTREGNELYHCVIYLAPGDYHCFHSPTDWTVSHRRHFPGSLMSVNPGMARWIKELFCHNERVVLTGDWKHGFFSLTAVGATNVGSIRIYFDRDLHTNSPRHSKGSYNDFSFVTHTNREGVPMRKGEHLGEFNLGATIVLIFEAPKDFNFQLKTGQKIRFGEALGSL
[2]
  binding: no binding
